# Experimental data published in PubChem BioAssay (NCATS).
# Inconclusive means that the source gave no clear call. Such entries were picked first, then a sample of the others. For some assays here: Potencies beside an inconclusive call are fits to weak or partial responses and may not hold up. For some assays here: “Side channel” marks fits to a control or component signal instead of the main read-out. The source made the active and inactive calls. Unless noted, calls come from the whole dose curve; as a rule, active = well fitted curve in the direction sought with a large enough effect; inconclusive = small, poorly fitted or top-dose-only effect, or another doubt; inactive = no such curve, though single readings can be large; an effect the other way counts as inactive or inconclusive.
# Experiments:
# [1] = Cellular Toxicity (caspase-3) NIH 3T3 (AID 666);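 note: caspase signal read after 16 h compound exposure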; note: potency is the fitted concentration of half-maximal effect;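 for caspase-3 activation: 0% = DMSO basal and 100% = 100 µM tamoxifen stimulation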
# Outline: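 Caspase-Glo 3/7 luminescence reported caspase activation in 1000 NIH 3T3 cells/well after 16 h compound exposure at 37 C. DMSO set basal and 100 uM tamoxifen set 100% stimulation; concentration-response modeled with the Hill equation for AC50.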
# [2] = target: Cytochrome P450 2C19 (Homo sapiens) (UniProt P33261); test: qHTS Assay for Inhibitors and Substrates of Cytochrome P450 2C19 (AID 899); note: potency is the fitted concentration of half-maximal effect; nearly all actives have a fitted effect of over 60% in size
# Outline: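 Luminescence readout of luciferin formed from 10uM Luciferin-H EGE (KM level) by 5 nM CYP2C19 in 50mM KPO4. 60 min NADPH-driven reaction at 37C after 10 min compound preincubation; data scaled to 57uM ketoconazole inhibition.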
# [3] = Confirmation and Secondary Assay for Modulators of Hemoglobin Beta Chain Splicing at IVS2 654 locus (AID 910); settings: HeLa EGFP-654 splicing reporter, GFP fluorescence, 48 h;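 note: HeLa cells stably carrying EGFP split by mutant beta-globin IVS2-654 intron; per-well total GFP intensity by laser scanning cytometry after 2-day treatment; potency is the fitted concentration of half-maximal effect; potency of activators that raise GFP signal by restoring correct splicing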
# Outline: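 Readout: per-well total peak green fluorescence (488 nm ex, 500–520 nm em) from objects 5–250 µm, reflecting correct splicing of an EGFP-654 reporter. Compounds were applied for 2 days at 37 °C to overnight-plated HeLa EGFP-654 cells; controls were DMSO and 500 nM IVS2-654 PNA.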
# [4] = Confirmation and Secondary Assay for Modulators of Hemoglobin Beta Chain Splicing at IVS2 705 locus (AID 930); settings: HeLa EGFP-705 splicing reporter, GFP fluorescence, 48 h;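 note: GFP fluorescence per well restored by corrected splicing of the IVS2-705 intron in EGFP; potency is the fitted concentration of half-maximal effect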
# Outline: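 HeLa EGFP-705 reporter; 500 cells/well, o/n 37C 5% CO2; cpd 2 d; 488 ex/500-520 em laser scan; total peak GFP intensity/well. Ref: 500 nM […] antisense PNA.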
# [5] = target: Cytochrome P450 2C9 (Homo sapiens) (UniProt P11712); test: qHTS Assay for Inhibitors and Substrates of Cytochrome P450 2C9 (AID 883); note: nearly all actives have a fitted effect of over 60% in size; note: potency is the fitted concentration of half-maximal effect; for activity change, negative = inhibition: % is set by controls: 0 for no effect and ±100 for the full control effect
# Outline: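 Luminescent read-out of deoxyluciferin hydroxylation, normalized to 57uM sulphaphenazole (AC100). Reaction: 10nM enzyme, 100uM Luciferin-H (equal to KM), 25mM KPO4, 10 min compound preincubation, then 60 min with NADPH regeneration, both at 37C.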
# [6] = qHTS Assay for Identification of Small Molecule Antagonists for NFkB Signaling Pathway (AID 895; active = well fitted inhibition curve with a large enough effect in the signal ratio, with a control signal flat, not every such curve was filed as active; inconclusive = small, poorly fitted or top-dose-only effect, or effect the other way, or a change in a side signal; the % refers to the signal ratio; note: potency is the fitted concentration of half-maximal effect; for activity change, negative = inhibition: % is set by controls: 0 for no effect and ±100 for the full control effect); settings: NFkB beta-lactamase reporter cells, FRET ratio 460/530, stimulated with 10 pM TNF alpha; activity change, negative = inhibition: at 38.3 µM (top of the series)
# Outline: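 Beta-lactamase reporter read-out (460 and 530 nm emission ratio, 405 nm excitation, 2 hrs substrate loading RT) after 5 hr stimulation with 10 pM TNF alpha in compound-treated NFkB-bla ME-180 cells in low-serum medium.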
# [7] = qHTS Assay for Identification of Small Molecule Agonists for Hypoxia Response Element Signaling Pathway (AID 914; active = well fitted activation curve with a large enough effect in the signal ratio, with a control signal flat, not every such curve was filed as active; inconclusive = small, poorly fitted or top-dose-only effect, or effect the other way, or a change in a side signal; the % refers to the signal ratio; note: potency is the fitted concentration of half-maximal effect; for activation: top concentration of the series differs between compounds; % of control where 0% means no effect); settings: ME-180 (cervical carcinoma) HRE-bla reporter, beta-lactamase ratio, CoCl2, 17 h; activation: active compounds read high
# Outline: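 Read-out: CCF4 FRET ratio of 460nm to 530nm emission (excitation 405nm) after 2.5 hours at room temperature, taken from HRE-bla ME-180 cells that had been exposed to compound and EC50 CoCl2 for 17 hours.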
# [8] = qHTS Assay for Identification of Small Molecule Agonists for Thrombopoietin (TPO) Signaling Pathway (AID 917); note: potency is the fitted concentration of half-maximal effect
# Outline: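 Quantitative HTS for pathway activators: compounds were pin-transferred onto IL-3-starved Ba/F3 cells expressing human TPO receptor, TPO was added at its EC50 (26 pM final), and after 24 hrs at 37 C reporter luciferase was measured.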
# [9] = qHTS Assay for Identification of Small Molecule Antagonists for Thrombopoietin (TPO) Signaling Pathway (AID 918); settings: TPO-dependent cell signaling reporter, antagonist mode; activity change, negative = inhibition: at 38.5 µM (top of the series); note: nearly all actives have a fitted effect of over 60% in size; note: potency is the fitted concentration of half-maximal effect
# Outline: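 Inhibition read as reduced luciferase luminescence after 24 h at 37 C in IL-3-deprived Ba/F3 cells carrying human TPO receptor and GPIIb-promoter reporter, stimulated with 26 pM TPO (final, its EC50) alongside compound.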
# [10] = qHTS Assay for Identification of Small Molecule Agonists for NFkB Signaling Pathway (AID 928; calls by dose curve); settings: NFkB beta-lactamase reporter cells, blue/green ratio
# Outline: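 Activators were sought with TNF alpha co-added at 10 pM final (its EC50) to beta-lactamase reporter cells. Cells were plated in OPTI MEM with 0.5% FBS and exposed for 5 hrs at 37 C. The FRET substrate ratio was read at 460 and 530 nm.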
# [11] = target: Muscarinic acetylcholine receptor M1 (Rattus norvegicus) (UniProt P08482); test: qHTS Assay for Antagonists of Acetylcholine Muscarinic M1 Receptor: Measurement of IP-One Response (AID 944); note: potency is the fitted concentration of half-maximal effect; nearly all actives have a fitted effect of over 75% in size
# [12] = Cellular Toxicity (caspase-3) Renal Proximal Tubule (AID 667); settings: renal proximal tubule cells, caspase-3 activation; primary cells freshly taken from rat;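 note: potency is the fitted concentration of half-maximal effect; cells exposed to compound for 16 hours at 37 °C before detection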
# Outline: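 In qHTS format, rat primary proximal tubule cells seeded at 1000 per well are exposed to compounds for 16 hours at 37 °C. An increase in Caspase-Glo 3/7 luminescence indicates caspase activation.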
# [13] = target: Cytochrome P450 3A4 (Homo sapiens) (UniProt P08684); test: qHTS Assay for Inhibitors and Substrates of Cytochrome P450 3A4 (AID 884); note: nearly all actives have a fitted effect of over 50% in size; note: potency is the fitted concentration of half-maximal effect; for activity change, negative = inhibition: % is set by controls: 0 for no effect and ±100 for the full control effect
# Outline: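 Luminescent readout of luciferin produced by CYP3A4 (20 nM) dealkylation of Luciferin-PPXE, 25 uM (its KM). NADPH-driven reaction ran 60 min at RT after 10 min compound preincubation; data scaled to 57 uM ketoconazole as 100% inhibition.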
# [14] = target: Muscarinic acetylcholine receptor M1 (Rattus norvegicus) (UniProt P08482); test: qHTS Assay for Antagonists of Acetylcholine Muscarinic M1 Receptor: Kinetic Measurement of Intracellular Calcium Response (AID 943); note: nearly all actives have a fitted effect of over 75% in size; note: potency is the fitted concentration of half-maximal effect;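 for activity change, negative = inhibition: Fluo-4 calcium signal as peak divided by basal fluorescence over 4 min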
# Outline: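 Antagonism measured as reduction of carbachol-evoked (EC80, 100 nM final) calcium flux in rat M1-CHO cells after 10 min compound exposure. Fluo-4 signal read kinetically; ratio of maximal to basal fluorescence.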
# [15] = target: Cytochrome P450 2D6 (Homo sapiens) (UniProt P10635); test: qHTS Assay for Inhibitors and Substrates of Cytochrome P450 2D6 (AID 891);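 note: luciferin methyl ether substrate demethylated by CYP2D6 with NADPH regeneration; potency is the fitted concentration of half-maximal effect; nearly all actives have a fitted effect of over 60% in size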
# Outline: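 Luminescent read-out of luciferin formed by 5 nM human CYP2D6 demethylating 30 uM Luciferin-ME EGE (Km level) over 60 min at room temperature after NADPH regeneration addition. Data normalized to full inhibition by 1.43 uM quinidine.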
# [16] = Cell Viability - LYMP2-001 (AID 921); note: potency is the fitted concentration of half-maximal effect; nearly all actives have a fitted effect of over 70% in size
# Outline: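 qHTS, 1536-well; lymphoblastoid cells, 24 hr compound, 37 C; ATP by CellTiter-Glo, 30 min RT; luminescence; Hill-fit AC50.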
# Tags give direction and shape of the fitted curve or compound fluorescence and quenching.
# UniProt P08482, sequence (P08482 whole entry, looked up): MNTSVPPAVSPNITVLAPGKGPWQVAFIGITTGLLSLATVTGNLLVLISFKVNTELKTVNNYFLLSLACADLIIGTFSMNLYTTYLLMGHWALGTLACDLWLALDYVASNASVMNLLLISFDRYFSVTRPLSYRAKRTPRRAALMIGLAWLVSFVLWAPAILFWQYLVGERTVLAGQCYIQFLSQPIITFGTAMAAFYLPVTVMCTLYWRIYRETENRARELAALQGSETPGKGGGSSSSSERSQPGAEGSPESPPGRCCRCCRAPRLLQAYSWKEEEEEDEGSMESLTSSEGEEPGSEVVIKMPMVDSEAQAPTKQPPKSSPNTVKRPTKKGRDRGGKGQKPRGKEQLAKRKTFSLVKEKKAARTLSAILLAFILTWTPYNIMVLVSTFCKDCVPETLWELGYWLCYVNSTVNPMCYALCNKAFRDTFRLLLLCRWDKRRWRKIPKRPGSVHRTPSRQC
# UniProt P11712, sequence (P11712 whole entry, looked up): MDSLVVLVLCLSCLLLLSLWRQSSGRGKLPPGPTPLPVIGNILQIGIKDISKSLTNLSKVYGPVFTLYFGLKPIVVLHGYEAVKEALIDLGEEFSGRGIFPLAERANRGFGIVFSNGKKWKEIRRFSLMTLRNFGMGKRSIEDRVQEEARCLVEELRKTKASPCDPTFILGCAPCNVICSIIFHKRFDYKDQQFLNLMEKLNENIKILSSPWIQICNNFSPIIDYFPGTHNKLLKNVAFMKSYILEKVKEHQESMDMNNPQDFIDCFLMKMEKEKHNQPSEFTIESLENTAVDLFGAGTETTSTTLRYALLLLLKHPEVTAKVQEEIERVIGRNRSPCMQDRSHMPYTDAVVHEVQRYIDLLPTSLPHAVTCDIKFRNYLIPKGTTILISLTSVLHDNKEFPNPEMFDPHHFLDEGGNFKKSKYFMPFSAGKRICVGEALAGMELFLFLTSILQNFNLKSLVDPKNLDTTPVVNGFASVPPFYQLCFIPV
# UniProt P08684, sequence (P08684 whole entry, looked up): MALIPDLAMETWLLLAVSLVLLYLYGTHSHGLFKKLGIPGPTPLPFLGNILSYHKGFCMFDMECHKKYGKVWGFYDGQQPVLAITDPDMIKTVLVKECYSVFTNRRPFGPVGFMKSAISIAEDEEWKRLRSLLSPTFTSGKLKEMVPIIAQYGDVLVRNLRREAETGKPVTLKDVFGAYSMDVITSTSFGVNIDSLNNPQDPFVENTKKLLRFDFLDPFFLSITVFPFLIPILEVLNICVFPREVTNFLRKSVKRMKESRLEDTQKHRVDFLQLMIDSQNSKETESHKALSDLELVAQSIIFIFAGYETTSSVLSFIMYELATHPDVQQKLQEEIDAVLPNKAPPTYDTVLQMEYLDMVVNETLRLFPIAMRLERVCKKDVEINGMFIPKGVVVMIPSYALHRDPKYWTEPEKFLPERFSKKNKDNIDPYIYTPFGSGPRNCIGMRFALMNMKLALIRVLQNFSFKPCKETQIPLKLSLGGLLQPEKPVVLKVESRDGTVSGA
# UniProt P33261, sequence (P33261 whole entry, looked up): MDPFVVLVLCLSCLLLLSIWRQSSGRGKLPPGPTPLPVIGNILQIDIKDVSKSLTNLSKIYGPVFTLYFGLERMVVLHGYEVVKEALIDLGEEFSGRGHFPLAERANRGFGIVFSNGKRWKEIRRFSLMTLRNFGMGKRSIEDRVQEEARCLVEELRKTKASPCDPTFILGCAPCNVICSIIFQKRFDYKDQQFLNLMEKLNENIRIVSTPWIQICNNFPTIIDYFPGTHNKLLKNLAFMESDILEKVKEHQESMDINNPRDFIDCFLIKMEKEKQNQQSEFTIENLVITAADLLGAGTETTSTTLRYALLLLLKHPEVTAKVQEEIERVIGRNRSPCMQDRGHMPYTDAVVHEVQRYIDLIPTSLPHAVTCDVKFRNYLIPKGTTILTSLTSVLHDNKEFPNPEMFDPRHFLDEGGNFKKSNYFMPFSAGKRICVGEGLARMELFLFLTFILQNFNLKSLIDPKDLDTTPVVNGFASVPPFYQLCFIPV
# UniProt P10635, sequence (P10635 whole entry, looked up): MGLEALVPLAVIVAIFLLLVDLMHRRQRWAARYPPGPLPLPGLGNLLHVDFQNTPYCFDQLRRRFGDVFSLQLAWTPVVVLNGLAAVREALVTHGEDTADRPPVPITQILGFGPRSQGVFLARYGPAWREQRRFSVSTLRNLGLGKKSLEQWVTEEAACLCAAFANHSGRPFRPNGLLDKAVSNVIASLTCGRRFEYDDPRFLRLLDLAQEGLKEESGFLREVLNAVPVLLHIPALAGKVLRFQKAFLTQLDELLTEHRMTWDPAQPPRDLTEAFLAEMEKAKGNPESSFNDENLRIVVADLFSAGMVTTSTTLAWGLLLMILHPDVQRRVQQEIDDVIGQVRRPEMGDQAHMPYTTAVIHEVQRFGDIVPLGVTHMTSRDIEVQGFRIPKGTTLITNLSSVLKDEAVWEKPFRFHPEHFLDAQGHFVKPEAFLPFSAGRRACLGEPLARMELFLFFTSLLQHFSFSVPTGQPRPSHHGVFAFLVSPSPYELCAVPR
structure (smiles),measurement,setting,value
Nc1ccc(N=Nc2ccccc2)c(N)n1,Potency,[1],"inconclusive: 20 µM [falling, full curve, poor fit]"
same,Potency,[2],"inconclusive: 7.94 µM [inhibitor, single point]"
same,Potency,[3],active: 15.8 µM
same,Potency,[4],active: 20 µM
O=c1c(-c2ccc(O)cc2)coc2cc(O)cc(O)c12,Potency,[5],inactive
same,"activity change, negative = inhibition",[6],inconclusive: -18.9%
same,Potency,[7],"inconclusive: 5.01 µM [inhibitor, full curve, poor fit]"
same,Potency,[8],active: 1.58 µM
same,Potency,[9],"inconclusive: 1.58 µM [activator, partial curve]"
Oc1ccc(O)cc1,Potency,[1],"inconclusive: 79.4 µM [falling, single point]"
same,Potency,[6],active: 10 µM
same,Potency,[3],"inconclusive: 12.6 µM [activator, partial curve]"
same,Potency,[8],"inconclusive: 12.6 µM [inhibitor, partial curve]"
same,Potency,[9],active: 12.6 µM
same,Potency,[10],"inconclusive: 10 µM [inhibitor, partial curve]"
same,Potency,[11],"inconclusive: 20 µM [inhibitor, partial curve, poor fit]"
CC(=O)Oc1ccccc1C(=O)Nc1ncc([N+](=O)[O-])s1,Potency,[1],"inconclusive: 0.501 µM [falling, full curve]"
same,Potency,[12],"inconclusive: 3.16 µM [falling, full curve, poor fit]"
CCN(CC)CCOc1ccc(/C(=C(\Cl)c2ccccc2)c2ccccc2)cc1,Potency,[5],inactive
same,activation,[7],inconclusive: 24.8%
O=c1c2ccccc2nc2n1CCc1c-2[nH]c2ccccc12,Potency,[13],"inconclusive: 3.98 µM [inhibitor, full curve]"
same,Potency,[6],inactive
same,Potency,[8],active: 0.316 µM
same,Potency,[9],"inconclusive: 0.316 µM [activator, full curve]"
same,Potency,[14],"inconclusive: 17.8 µM [inhibitor, partial curve, poor fit]"
COc1ccc(-c2coc3cc(O)ccc3c2=O)cc1,Potency,[5],inactive
CC(C(=O)O)c1ccc(C(=O)c2cccs2)cc1 (stereo not drawn),Potency,[13],inactive
O=c1cc(N2CCOCC2)oc2c(-c3ccccc3)cccc12,Potency,[13],"inconclusive: 5.01 µM [inhibitor, partial curve]"
same,Potency,[6],"inconclusive: 7.08 µM [activator, partial curve]"
same,Potency,[7],"inconclusive: 7.94 µM [inhibitor, partial curve]"
same,Potency,[8],"inconclusive: 10 µM [inhibitor, partial curve]"
same,Potency,[10],active: 7.08 µM
c1ccc2occc2c1,Potency,[13],inactive
O=c1[nH]cc(F)c(=O)[nH]1,Potency,[5],inactive
Clc1ccccc1-c1nc(-c2ccncc2)no1,Potency,[13],"inconclusive: 2 µM [inhibitor, partial curve]"
same,Potency,[15],"inconclusive: 3.16 µM [inhibitor, partial curve]"
CCCCCCCCCCCCCCCCCC(=O)O,Potency,[13],inactive
CC(C)(C)c1ccc(O)c(O)c1,Potency,[1],"inconclusive: 50.1 µM [falling, partial curve]"
same,Potency,[13],inactive
same,Potency,[16],active: 31.6 µM
CC(C)C(=O)Nc1ccc([N+](=O)[O-])c(C(F)(F)F)c1,Potency,[1],inactive
same,"activity change, negative = inhibition",[9],inconclusive: -27.6% [phenotype inactive]
CCC(=C(CC)c1ccc(O)cc1)c1ccc(O)cc1,Potency,[5],active: 12.6 µM
same,Potency,[15],inconclusive: 15.8 µM
same,Potency,[2],inconclusive: 15.8 µM
same,Potency,[7],"inconclusive: 5.01 µM [inhibitor, partial curve]"
Cc1cc(O)c2c(c1)C(=O)c1cc(O)cc(O)c1C2=O,Potency,[1],"inconclusive: 2 µM [falling, full curve]"
same,"activity change, negative = inhibition",[6],inconclusive: -0.858%
same,Potency,[14],inactive
CN1CCc2cc(NC(=O)Nc3cccnc3)ccc21,Potency,[6],"inconclusive: 14.1 µM [inhibitor, single point]"
same,Potency,[7],"inconclusive: 31.6 µM [inhibitor, partial curve, poor fit]"
same,Potency,[8],active: 1.58 µM
same,Potency,[9],"inconclusive: 1.58 µM [activator, partial curve]"
same,Potency,[14],inactive
same,Potency,[11],"inconclusive: 5.01 µM [inhibitor, full curve, poor fit]"
Cn1ccc2cc3c(cc21)CCN3C(=O)Nc1cccnc1,"activity change, negative = inhibition",[6],inconclusive: -3.65%
same,Potency,[7],"inconclusive: 12.6 µM [inhibitor, partial curve]"
same,Potency,[8],active: 1 µM
same,Potency,[9],"inconclusive: 1 µM [activator, partial curve]"
same,Potency,[11],"inconclusive: 12.6 µM [inhibitor, partial curve, poor fit]"
Cc1ccc(O)c(N=Nc2ccccc2)n1,Potency,[6],"inconclusive: 31.6 µM [inhibitor, single point]"
same,Potency,[7],"inconclusive: 12.6 µM [inhibitor, partial curve]"
same,Potency,[8],active: 0.0794 µM
same,Potency,[9],"inconclusive: 0.0794 µM [activator, full curve]"
same,Potency,[14],"inconclusive: 4.47 µM [inhibitor, partial curve, poor fit]"
Cn1cc(C2=C(c3ccc(Cl)cc3Cl)C(=O)NC2=O)c2ccccc21,Potency,[6],"inconclusive: 6.31 µM [side channel, rising, partial curve]"
same,Potency,[7],"inconclusive: 3.98 µM [side channel, rising, full curve, poor fit]"
same,Potency,[8],"inconclusive: 15.8 µM [inhibitor, partial curve]"
